From the supplement of paper PMC3334620
The full ranking holds about 33,000 sequences; the median of “E-score (-0.5 to 0.5)” is about -0.01, and the highest 2% start at about 0.26. This is one part of the list.

target: Ste12 (UniProt P13574); assay: PBM E-score (8-mer binding enrichment) (E-score (-0.5 to 0.5)); higher = stronger / more preferred TF binding; most listed sequences are background and not binding sites; conditions: protein concentration: 200 nM; construct: GST-DNA-binding domain
How it was run: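 PURExpress in vitro transcription/translation supplied GST-tagged yeast transcription factors, either full-length or DNA-binding domain. Applied at about 100-200 nM to universal all-10-mer Agilent arrays double-stranded by primer extension, the bound protein was detected with fluorescent anti-GST. E-scores, modified Wilcoxon-Mann-Whitney statistics, were given by the Universal PBM Analysis Suite to ungapped eight-base words pooled with their reverse complements after masliner normalisation.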

Row | Sequence | PBM E-score
1 | TGGTGGAA | -0.014
2 | GCAGTGTA | 0.0131
3 | GAGTACTC | -0.0929
4 | GCTGCCAC | 0.0519
5 | AAGGACAT | -0.0394
6 | GAAAAATA | 0.217
7 | AGTCTCCG | 0.0185
8 | ACTGACGA | -0.0103
9 | AGATACTC | -0.0363
10 | CTTGCAAA | 0.207
11 | GAATTGTA | 0.0137
12 | AGAAACAA | 0.26
13 | CATAACCC | 0.0861
14 | AACCACGA | 0.115
15 | CAGATGCA | -0.252
16 | GATTATGA | 0.045
17 | CAAGTTCA | 0.117
18 | CCGTTCGA | -0.014
19 | CGCGGCTC | 0.0634
20 | CTGCAGAA | 0.0476
21 | GCTTCGGA | -0.12
22 | AGCTGGTG | -0.0858
23 | CATTTAGG | -0.205
24 | CATGGCGG | -0.0453
25 | ATACAGAA | 0.133

Row | Sequence | PBM E-score
26 | CCGTGGCG | 0.124
27 | CCTTAAAG | -0.0939
28 | AATTTTAC | 0.251
29 | ACCACGGG | -0.202
30 | GTGTTATA | 0.0175
31 | CCAAAAAG | 0.158
32 | ATAATCGC | 0.08
33 | GTTGGGTA | -0.035
34 | GGAGGCTA | 0.035
35 | CCCAAGGC | -0.0771
36 | ACCGGTTA | -0.0192
37 | ACATTAAG | 0.084
38 | CCCGCCGA | -0.0475
39 | GACCAGCA | 0.0512
40 | AACACCGT | 0.0855
41 | CTCTCACC | -0.0199
42 | ACAGCCCT | -0.18
43 | CGACATCG | -0.126
44 | GTTATCTA | 0.0186
45 | TATTGACA | 0.0458
46 | ACGGATAT | 0.0921
47 | CCAGGTCC | -0.217
48 | TCCTTGAA | 0.0246
49 | AGGGTTCG | -0.247
50 | GATATTCA | 0.0641

Row | Sequence | PBM E-score
51 | CTGCGGAA | -0.0498
52 | AGCGCGAA | 0.0799
53 | AATTAGCT | 0.191
54 | GCCCCCCC | -0.0282
55 | GGATGTTA | 0.111
56 | CTCGGAAA | 0.188
57 | CTTGCAGA | -0.0853
58 | ACAACACT | 0.155
59 | CCAAATAC | 0.0263
60 | ACGCCGTA | -0.071
61 | AACATAGC | -0.103
62 | CACATCCA | -0.0244
63 | GCATAGGC | -0.103
64 | AGGGGTAT | 0.0212
65 | CTATAATA | -0.00072
66 | CAAGCATA | -0.0242
67 | GTCGCGGA | -0.0155
68 | ACGCATGC | 0.0674
69 | CGATAGCG | 0.138
70 | CCAGCGGA | -0.178
71 | ACTAAATA | 0.214
72 | AAGGCTTG | 0.0185
73 | CAACGTAC | -0.0196
74 | CCCTCTTA | -0.121
75 | GTCGGTTA | 0.114

Row | Sequence | PBM E-score
76 | CGGGCGAA | -0.0291
77 | GGGCGAAC | 0.0237
78 | CACCGGAC | -0.0611
79 | ACCGTCGT | -0.0196
80 | CATCTTCC | 0.16
81 | ACATTGGC | -0.01
82 | CGCCAGGA | -0.00871
83 | AGCGACGG | -0.0105
84 | ACGAGCAG | -0.00712
85 | AAATCATA | 0.201
86 | CTGGGCTA | -0.125
87 | CTATTTCA | 0.233
88 | CGCGCTCA | -0.0477
89 | ATACGACC | -0.0988
90 | AAGCGAAC | -0.202
91 | ACACACTA | -0.0214
92 | GACGGGAC | -0.179
93 | GAATCCAA | 0.0666
94 | AAGGAAAC | -0.0908
95 | ACCCAGTG | -0.0603
96 | AATGCATT | 0.11
97 | ATCCAACG | -0.153
98 | AACCATGA | 0.165
99 | CAGGTTAC | 0.0155
100 | CAGGATGG | -0.128

Row | Sequence | PBM E-score
101 | TAGCGATA | 0.0964
102 | AGGCGAAA | 0.00301
103 | CGGAGAGA | 0.0507
104 | GAGTAACA | 0.101
105 | CATAAATC | 0.217
106 | GATTTGGA | -0.072
107 | GGGAGGGA | 0.252
108 | ATTATGCA | 0.104
109 | AAAGCATG | 0.157
110 | CCGGGAAA | 0.0597
111 | AAAATATT | 0.266
112 | GCTCTCCC | -0.0908
113 | CGATTTAA | 0.1
114 | CATTAAAC | 0.191
115 | CTGTAACC | 0.183
116 | CAGGGATG | -0.185
117 | AGTGGACC | -0.271
118 | AATGGGGC | -0.0469
119 | ATGTCCGA | -0.0197
120 | GACCAACC | -0.234
121 | AAAGCAGA | 0.102
122 | CAAGAGGA | 0.00931
123 | ACATACCC | 0.053
124 | GCAAAGGA | 0.0239
125 | ATCAACTA | 0.141

Row | Sequence | PBM E-score
126 | ATATTCCC | 0.146
127 | GAATTGCC | -0.0798
128 | TTGTGAAA | 0.342
129 | ACATGATC | 0.145
130 | AAGGTTTA | 0.0453
131 | CGCCAGCG | -0.184
132 | GCATTCCC | -0.216
133 | TACCTCAA | 0.108
134 | ACGGAAGC | -0.0171
135 | CACCCTGC | -0.0282
136 | AAGGGTCA | -0.185
137 | ATCTTCTA | 0.168
138 | ATGAGTTG | 0.14
139 | GGGAGCTA | -0.166
140 | CGTACGCC | -0.074
141 | ATAAGGCA | -0.0946
142 | CTCGTGGA | -0.121
143 | GAGCGTGA | -0.0254
144 | AAGGATCA | -0.147
145 | ATGAAGAC | 0.0538
146 | AACTTTAA | 0.279
147 | TAGCTGGA | -0.0515
148 | GAATGTCC | -0.147
149 | ATGCGTGC | -0.173
150 | GAAAGCCA | -0.0412

Row | Sequence | PBM E-score
151 | CTGTCACA | 0.147
152 | AAAAATTA | 0.326
153 | TGCGATAA | 0.0796
154 | CGTACACA | -0.111
155 | ATGTCACC | -0.0256
156 | ACGATACC | 0.118
157 | CGTGTCTC | -0.0253
158 | AAGCAGAT | 0.0182
159 | CGTTGCTC | 0.0329
160 | ATCCCGCG | 0.204
161 | GTTGTAGA | 0.0182
162 | TGCAAACA | -0.0373
163 | ACTAGGCG | 0.174
164 | CGAATCGA | 0.196
165 | CGAAAAGA | 0.242
166 | AAATCGCC | 0.018
167 | CAATCAAG | -0.0923
168 | CACAGTTA | 0.173
169 | ATGTAGAA | 0.141
170 | AGTATTAC | 0.0263
171 | ACTCGGGA | 0.00069
172 | CGATCCGC | -0.0771
173 | AACGTGGC | 0.0443
174 | CAATCTAG | 0.00433
175 | CAACCGGA | 0.0644

Row | Sequence | PBM E-score
176 | AAGCCCAA | -0.0155
177 | CACAGAGA | 0.0895
178 | GCGTGACC | -0.0478
179 | GAATATTC | -0.00905
180 | CGGTAAAA | 0.198
181 | GACCTGCC | -0.0264
182 | CACTAACG | -0.0575
183 | CCTTCCTC | -0.155
184 | CACATGTG | -0.137
185 | CATCAACA | 0.111
186 | AGACTGGA | -0.0847
187 | AATGTCCG | -0.116
188 | TGAGCTCA | 0.0371
189 | CACAAGGC | -0.17
190 | CAGGAGTC | -0.0302
191 | CCTGGCTA | -0.217
192 | AGAAATGG | 0.058
193 | CCCTCAGG | -0.135
194 | ATGATGTC | 0.0463
195 | ACTGAAAT | 0.181
196 | AGTTACTG | -0.129
197 | CACCTAAA | 0.0511
198 | AAGCAGTA | 0.0143
199 | CATGGTCA | 0.049
200 | GCGTAGCC | -0.161

Row | Sequence | PBM E-score
201 | ATCGAGAA | 0.16
202 | AGGAGGTG | -0.216
203 | ACAAGCTG | 0.0467
204 | CGAGATCC | -0.209
205 | AGAAAGGG | 0.0728
206 | GGCTAATA | 0.152
207 | CAAGCGCG | 0.00382
208 | GTCTTCTA | 0.0531
209 | CGCTTTGC | 0.0024
210 | CACACGCC | 0.158
211 | AGGCGCAT | -0.287
212 | AGTCACGG | -0.0689
213 | CTAATTCC | -0.0281
214 | ACCGCCAT | -0.0412
215 | AAGCCCAC | -0.0847
216 | CTTCGCCA | -0.0108
217 | CAATCATG | 0.0722
218 | ACCATGCA | 0.0206
219 | GATTCGCA | 0.148
